From PubChem BioAssay AID485344 (National Center for Advancing Translational Sciences (NCATS), 2010)
Hit rate of the full screen: of about 340,000 compounds, about 6,900 (2%) were called active. No stated cut-off is given here; in the data, active means inhibition above about 30%; inactive means below that, where a call was filed. Only a part is listed here, and it is no random draw. Entries without a call were filed so in the source.

target: D(2) dopamine receptor (Homo sapiens) (UniProt P14416); assay: HTS Assay for Allosteric Antagonists of the Human D2 Dopamine Receptor: Primary Screen for Antagonists; conditions: HEK293 TREx D2 cells, calcium flux, dopamine EC80; at 10 µM; stronger effect = higher value; further: 0% is about no effect
Outline: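 Calcium flux kinetic readout in an inducible HEK293 TREx D2 line plated overnight at 30 C. After 180 s compound exposure, an EC80 dopamine challenge follows with another 180 s kinetic read to detect antagonism.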

Chain of UniProt P14416 (P14416 whole entry, looked up): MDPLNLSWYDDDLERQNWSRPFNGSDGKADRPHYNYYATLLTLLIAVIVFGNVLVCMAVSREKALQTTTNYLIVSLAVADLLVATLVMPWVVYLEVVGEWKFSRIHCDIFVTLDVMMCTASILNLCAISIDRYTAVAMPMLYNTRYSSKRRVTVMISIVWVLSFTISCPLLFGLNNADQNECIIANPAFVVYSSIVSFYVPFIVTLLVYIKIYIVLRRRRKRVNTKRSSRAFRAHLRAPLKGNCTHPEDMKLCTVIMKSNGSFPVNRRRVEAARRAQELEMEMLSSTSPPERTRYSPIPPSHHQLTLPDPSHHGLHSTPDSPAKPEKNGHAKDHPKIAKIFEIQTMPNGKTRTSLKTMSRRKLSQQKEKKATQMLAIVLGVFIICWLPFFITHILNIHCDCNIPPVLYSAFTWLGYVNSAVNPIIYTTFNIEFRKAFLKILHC

Row | Compound | inhibition
1 | CCN(C(=O)c1cn(-c2cccc(OC)c2)c(=O)c2ccccc12)c1ccccc1C | 10.6%
2 | Cc1noc(C(=O)Nc2ccc3c(c2)OCO3)c1Cl | active: 54.4%
3 | OC(COCc1ccccc1)CN1CCN(c2ccccc2F)CC1 (stereo unspecified) | active: 111%
4 | COc1ccc(C(=O)Nc2ccccc2-c2nc3ccccc3s2)cc1OC | -0.121%
5 | Cc1ccc(C)c(NC(=O)CSc2nccn2-c2cccc(C)c2C)c1 | -18.4%
6 | Cc1nn(-c2nc(-c3ccccc3)cc(C(F)(F)F)n2)c(C)c1Cl | 0.486%
7 | CCc1nn(C(CC)C(=O)NCc2ccc(OC)c(OC)c2)c(=O)c2cc3oc(C)cc3n12 (stereo unspecified) | 16.2%
8 | COc1ccccc1N1CCN(c2ncnc3c2c(-c2ccccc2)cn3-c2cccc(Cl)c2)CC1 | 9.82%
9 | Cc1ccc(OCCSc2nc(-c3ccccc3C)nc3cc(=O)[nH]n23)cc1Cl | -0.632%
10 | COc1cccc(OC)c1C(=O)NCCc1sc(-c2cccc(F)c2)nc1C | -11.7%
11 | COc1ccc(S(=O)(=O)N2CCC(Oc3ccc(-n4cnnn4)cc3)CC2)cc1 | -5.55%
12 | CCCCNC(=O)c1cccc(NC(=O)c2nsc3ccccc23)c1 | 3.79%
13 | Cc1cc(NS(=O)(=O)c2ccc(NC(=O)c3ccc(Cl)cc3[N+](=O)[O-])cc2)no1 | active: 40.7%
14 | CCOc1ccc2c(c1)c(=O)c(C(=O)c1ccc3c(c1)OCO3)cn2Cc1ccc(F)cc1 | -10%
15 | O=C(O)c1ccc(CSc2nc3ccccc3c(=O)n2-c2ccccc2)cc1 | active: 48.3%
16 | COc1cc(/C=C(\C#N)c2nc3ccc(C)cc3[nH]2)ccc1OCc1ccc(C)cc1 | 6.6%
17 | CCc1ccc(OCCSc2nc3ccccc3n2CC(=O)N2CCCCC2)cc1 | 12.8%
18 | O=C(c1ccc(F)cc1)N1CCc2c([nH]c3ccccc23)C1c1ccc(Cl)cc1 (stereo unspecified) | 8.94%
19 | CCOc1ccc(NCc2cccn2-c2nnc(N3CCC(C(=O)NCc4ccccc4Cl)CC3)s2)cc1 | -10.3%
20 | CC(C)(C)OC(=O)N1CCC(c2c(C(=O)NCc3cccs3)cnn2-c2cccc(F)c2)CC1 | 5.18%
21 | COc1ccc(Cl)cc1NC(=O)N1CCN(S(=O)(=O)c2ccc3c(ccn3C)c2)CC1 | 6.71%
22 | COc1ccc(OC)c(NC(=O)c2oc(=O)c3ccccc3c2-c2ccccc2)c1 | 11.3%
23 | COc1ccc(CC(=O)N2CCc3cc(OC)c(OC)cc3C2COc2ccc(F)cc2)cc1 (stereo unspecified) | 22%
24 | COc1cc2c(cc1OC)C(c1cccc(Cl)c1)CC(=O)N2 (stereo unspecified) | -15.8%

Row | Compound | inhibition
25 | Cn1nc(-c2ccccc2F)c2cc(C(=O)NCc3ccccc3Cl)sc21 | 6.25%
26 | COc1ccc(N2CCN(S(=O)(=O)c3ccc(F)c(C(=O)Nc4ccccc4Cl)c3)CC2)cc1 | 6.91%
27 | CCCSCCCNC(=O)c1ccc(C)c(NC(=O)c2nsc3ccccc23)c1 | -15.6%
28 | COc1cccc(Cn2nc(SC)c(S(=O)(=O)c3ccccc3)c2N(C(C)=O)C(C)=O)c1 | 8.58%
29 | CCS(=O)(=O)N1CCCc2cc(C(=O)Nc3cccc(C(C)=O)c3)ccc21 | 10.5%
30 | CCC(=O)N1CCc2cc(Br)cc(S(=O)(=O)CCC(=O)Nc3cccc(Cl)c3)c21 | -7.42%
31 | CCCn1c2ccc(F)cc2c2nnc(SCCN3CCCCC3)nc21 | 26.7%
32 | CCOc1ccc(Nc2ncnc3c2c(-c2ccccc2)cn3-c2cccc(C)c2)cc1 | 1.14%
33 | Clc1ccc(-c2nnn3c2nc(NC2CCCCC2)c2ccccc23)cc1 | 2.53%
34 | CCOc1ccc(C(=O)N(Cc2ccc(C(C)C)cc2)Cc2ccco2)cc1 | -5.46%
35 | COc1ccc(-c2noc(CCC(=O)N(C)c3cc(Cl)ccc3OC)n2)cc1 | -7.96%
36 | CC(C)CCOc1ccc(C(=O)NCC2OCCc3ccccc32)cc1 (stereo unspecified) | 0.722%
37 | COc1ccc(NS(=O)(=O)c2ccc(N3CCCCS3(=O)=O)cc2)cc1Cl | -0.0227%
38 | CN(CCC(=O)Nc1cc(S(=O)(=O)N(C)C)ccc1Cl)CC(=O)Nc1ccc(F)cc1 | active: 50.6%
39 | COc1cccc(-n2c(=O)c3cc(OC)c(OC)cc3n(CC(=O)Nc3ccc(F)cc3)c2=O)c1 | 16.6%
40 | COc1ccc(-n2c(SCC(=O)NCc3ccc(Cl)cc3)nc3ccsc3c2=O)cc1 | 3.65%
41 | CCOC(=O)C1CCCCN1C(=O)CCc1c(C)nc2cc(-c3ccccc3)nn2c1C (stereo unspecified) | active: 32.8%
42 | Cc1ccc(NC(=O)CCCc2nc(-c3ccco3)no2)cc1Cl | 5.59%
43 | COc1cccc(NC(=O)C(Cc2ccccc2)N2Cc3ccccc3C2=O)c1 (stereo unspecified) | 9.77%
44 | COc1ccc(-n2nnnc2C2CCN(S(=O)(=O)c3cccc(C(F)(F)F)c3)CC2)cc1 | 7.95%
45 | CC(=O)Nc1ccc(/C=C/c2noc(-c3ccccc3O)n2)cc1 | 3.31%
46 | CCOC(=O)CSc1nc(-c2ccc(OCC)cc2)cc(C(F)(F)F)c1C#N | 20.4%
47 | Cc1cc(C)c2ccc(C)[n+]([O-])c2c1O | active: 37.4%
48 | CC(=O)c1ccc(N2CCN(S(=O)(=O)c3cc4[nH]c(=O)c(=O)[nH]c4cc3C)CC2)cc1 | 2.25%

Row | Compound | inhibition
49 | COc1ccccc1CNC(=O)C(=O)NCC(c1cccs1)S(=O)(=O)c1ccccc1 (stereo unspecified) | -16.4%
50 | CCc1nnc(NC(=O)c2cc(=O)c3cc(C)ccc3o2)s1 | 2.56%
51 | Cc1ccc(C)c(N2CCN(C(=O)Cn3cnc4onc(-c5ccc(F)cc5)c4c3=O)CC2)c1 | -0.44%
52 | CCOc1ccc2ncc3c(-c4ccc(C)cc4)nn(-c4cccc(F)c4)c3c2c1 | 26.6%
53 | COc1ccc(CCNC(=O)CSc2nc3[nH]c(=O)cc(O)c3s2)cc1 | active: 43.9%
54 | COc1ccc(-c2nc3c(c(SCC(=O)N4CCCCC4)n2)Cc2cc(C)ccc2O3)cc1 | 5.87%
55 | O=S(=O)(c1cccc(Cl)c1)c1nnn2c1nc(NCc1ccc3c(c1)OCO3)c1sccc12 | 19.2%
56 | COc1ccc(C(=O)c2oc3ccccc3c2NC(=O)c2cc(=O)c3ccc(C)cc3o2)cc1Cl | -16.3%
57 | Cc1cccc(C(=O)Nc2nnc(S(=O)(=O)N(C)Cc3ccccc3)s2)c1 | 16.1%
58 | Cc1ccc(S(=O)(=O)CC(=O)Nc2nc3c(C)cc(C)cc3s2)cc1 | 16.2%
59 | CCOc1ccc(-c2cccc(NS(=O)(=O)c3ccc(F)cc3F)c2)nn1 | -9.89%
60 | COc1ccc(-c2noc(CNC(=O)c3ccccc3Br)n2)cc1 | 1.57%
61 | CCCOc1ccc(C2c3c(-c4ccccc4O)n[nH]c3C(=O)N2CCc2ccccc2)cc1OCC (stereo unspecified) | -0.629%
62 | N#Cc1c(SCc2ccccc2)sc(C(=O)c2ccccc2)c1N | active: 65%
63 | Cc1ccc(NC(=O)c2cc(S(=O)(=O)N3CCC4(CC3)OCCO4)ccc2F)cc1Cl | 2.63%
64 | CCOc1cccc(C(=O)Nc2ccc(-c3nc4ncccc4o3)cc2C)c1 | 11.3%
65 | CCOC(=O)c1ccccc1NC(=O)c1sc2nc3n(c(=O)c2c1C)CCCCC3 | 17.3%
66 | CN(C)S(=O)(=O)N(CC(=O)NCCSCc1c(F)cccc1Cl)c1ccccc1 | 16.6%
67 | COC(=O)c1c(NC(C)=O)c2c3c(sc2n1Cc1cc(C)ccc1C)CCCC3 | -5.82%
68 | O=C(NCCN1CCN(c2ccccc2)CC1)C1CCN(S(=O)(=O)N2CCOCC2)CC1 | active: 60.6%
69 | O=c1[nH]c(SCc2c(F)cccc2Cl)nc2c1CCC2 | -15.5%
70 | Cc1ccc(S(=O)(=O)N2CCC(N3CCN(Cc4ccccc4)C(=O)C3=O)CC2)cc1C | 6.96%
71 | CCN(CC)S(=O)(=O)c1cccc(C(=O)Nc2ccccc2C(=O)Nc2ccc(Cl)cc2)c1 | 0.144%
72 | Cc1ccc(-n2c(/C=C/c3c(C)n(C)c4ccccc34)nc3ccccc3c2=O)cc1 | 1.98%

Row | Compound | inhibition
73 | Cc1ccc(C)c(NS(=O)(=O)c2cc3c(cc2C)n(C)c(=O)c(=O)n3C)c1 | 8.78%
74 | CCOC(=O)c1c(NC(=O)Cc2coc3cc(C)cc(C)c23)sc2c1CCC2 | 12.9%
75 | CC(=O)c1ccc(NC(=O)c2cc(C)nn2-c2ccccc2)cc1 | 0.0906%
76 | COCCN(CCOC)S(=O)(=O)c1ccc(C(=O)Nc2sc3c(c2C(=O)OC)CCN(C)C3)cc1 | -10.2%
77 | CCOC(=O)N1CCc2c(sc3c2C(=O)NC(c2ccc(N(C)C)cc2)N3)C1 (stereo unspecified) | -1.09%
78 | COC(=O)c1ccc2c(C)c(C(C)(C)O)[nH]c2c1 | active: 44.9%
79 | CCCCOc1ccc(C2c3c(oc4ccc(C)cc4c3=O)C(=O)N2CCCN(C)C)cc1OCC (stereo unspecified) | -7.81%
80 | CC(=O)NCCNC(=O)CCCn1c(=O)[nH]c2ccsc2c1=O | 8.38%
81 | Cc1ccc(-n2c(SCc3ccccc3F)nc3[nH]ncc3c2=O)cc1Cl | 10.3%
82 | CCc1cccc(NC(=O)Cn2c(C(=O)OC)cc3sc(Cl)cc32)c1 | -5.13%
83 | CCN(CC)CCNC(=O)C1CCN(C(=O)c2cnn(-c3ccccc3)c2-n2cccc2)CC1 | 11.3%
84 | COc1ccc(CCn2nc(C)c([N+](=O)[O-])c2C)cc1 | active: 32.3%
85 | O=C(COC(=O)/C=C/C(=O)N1CCN(c2ccccc2)CC1)NC(c1ccccc1)c1ccccc1 | active: 69.1%
86 | COc1cccc2cc(-c3nc(-c4ccccc4F)no3)c(=O)oc12 | -0.784%
87 | O=C(Nc1ccc(F)c(Cl)c1)c1ccc2c(Cl)c3c(nc2c1)CCCC3 | 2.29%
88 | CCOc1ccccc1CNC(=O)c1cc2c(=O)n(Cc3cccnc3)ccc2nc1C | -10.9%
89 | CCCCN(C)CC(O)Cn1cc(/C=C/C(=O)c2ccc(Br)cc2)c2ccccc21 (stereo unspecified) | 2.13%
90 | CCCS(=O)(=O)N1CC(=O)N(c2cccc(Cl)c2)C(C)(C(=O)NC2CCCCC2)C1 (stereo unspecified) | -9.84%
91 | CC(=O)c1cccc(NC(=O)c2sc(-n3nc(C)c(Cc4ccccc4)c3C)nc2C)c1 | 4.38%
92 | Cc1ccc2nc(COc3cccc(NC(=O)Nc4ccc(C)c(Cl)c4)c3)cc(=O)n2c1 | 8.1%
93 | COCCNC(=O)c1ccc2c(c1)N(Cc1cc(C)ccc1C)C(=O)c1ccccc1S2=O (stereo unspecified) | 11.7%
94 | O=C(Cn1c(SCc2ccc(F)cc2)nc2cccnc21)Nc1ccccc1F | 12.1%
95 | COc1cccc(-c2cc(C(=O)NCCc3ccc(OC)c(OC)c3)no2)c1 | -4.16%
96 | OCCC1CN(Cc2cccc(OC3CCCC3)c2)CCN1Cc1ccsc1 (stereo unspecified) | active: 65.5%
